In PubChem BioAssay AID602310 (National Center for Advancing Translational Sciences (NCATS), 2012):
Among all 410,000 compounds or so, about 310 (0.076%) were called active. The shares of active, inactive and inconclusive entries below differ from those in the screen. Calls come from the whole dose curve; as a rule, active = well fitted curve in the direction sought with a large enough effect; inconclusive = small, poorly fitted or top-dose-only effect; inactive = flat fitted curve, though single readings scatter. A potency beside an inconclusive call is a rough fit, not a confirmed value.

These molecules were tested against DNA dC->dU-editing enzyme APOBEC-3G (Homo sapiens) (UniProt Q9HC16) (assay: qHTS for Inhibitors of Vif-A3G Interactions: qHTS). Settings: HeLa A3G-eYFP + Vif (tagged APOBEC3G with the HIV-1 protein that degrades it), YFP fluorescence, overnight; series mostly up to 46.1 µM.
Method in brief: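 Read-out is eYFP fluorescence (Ex 488/Em 500-530) from Vif-expressing HeLa A3G-eYFP cells; more signal means A3G escaped Vif-mediated degradation. Cells plated overnight, compound pinned in, incubated overnight at 37 deg C.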
Note: nearly all actives have a fitted effect of over 60% in size.
Potency is the fitted concentration of half-maximal effect; tags give direction and shape of the fitted curve.

Chain of UniProt Q9HC16 (Q9HC16 whole entry, looked up): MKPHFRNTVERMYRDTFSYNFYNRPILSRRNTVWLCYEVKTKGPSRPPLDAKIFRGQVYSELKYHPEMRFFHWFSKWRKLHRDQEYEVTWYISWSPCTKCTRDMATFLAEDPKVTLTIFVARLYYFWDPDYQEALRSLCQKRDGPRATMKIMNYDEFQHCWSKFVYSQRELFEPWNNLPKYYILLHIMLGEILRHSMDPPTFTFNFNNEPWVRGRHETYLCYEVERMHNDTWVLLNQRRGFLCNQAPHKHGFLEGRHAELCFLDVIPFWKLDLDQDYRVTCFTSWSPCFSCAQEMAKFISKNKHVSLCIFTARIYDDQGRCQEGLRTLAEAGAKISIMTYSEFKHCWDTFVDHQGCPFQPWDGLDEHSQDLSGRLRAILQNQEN

Which Potency does the source give for `COc1ccc(Nc2ncc(C(=O)Nc3ccc(F)cc3F)c3ccccc23)cc1` here?
The Potency was “inactive”.

With `CN(C)C(=O)c1cccc(-c2cnc3c(NC=O)cc(-c4ccc(F)cc4)cn23)c1` as the molecule, how does the Potency read?
Its Potency is inconclusive: 10 µM [inhibitor, partial curve, poor fit].

Which Potency does the source give for `CSc1ccc(CCNC(=O)c2c(C)nn(-c3ccc(F)cc3)c2-n2cccc2)cc1` here?
The Potency was inconclusive: 1.41 µM [inhibitor, partial curve, poor fit].

For `Nc1[nH]c2cc([N+](=O)[O-])ccc2c1-c1ccccn1`, which Potency is on record?
Its Potency is inconclusive: 7.08 µM [inhibitor, partial curve, poor fit].

With `CCCn1c(N)c(C(=O)CSc2nnc(-c3cccnc3)n2-c2ccc(C)cc2C)c(=O)[nH]c1=O` as the molecule, how does the Potency read?
Its Potency is inconclusive: 35.5 µM [inhibitor, single point].

How did the Potency turn out when `O=c1oc2ccccc2cc1-c1nc(-c2cccc(Cl)c2)cs1` was run?
The Potency was “inactive”.

How did the Potency turn out when `N#C/C(=N\Nc1ccc(Cl)cc1)C(=O)c1ccsc1` was run?
The Potency was inconclusive: 10 µM [inhibitor, partial curve].

With `CSCC[C@H](NC(=O)[C@H](Cc1ccccc1)n1c(=O)[nH]c2ccccc2c1=O)C(=O)N1CCC[C@@H]1C(=O)O` as the molecule, how does the Potency read?
Its Potency is active: 10 µM.

With `N#Cc1ccc2sn(-c3ccccc3)c(=O)c2c1` as the molecule, how does the Potency read?
The Potency was “inactive”.

`CCOC(=O)C1=C(C)OC(N)=C(C#N)C1c1ccc(C)o1` (centres undefined) was tested. Which Potency did it give?
Its Potency is inconclusive: 31.6 µM [inhibitor, single point].

`CCOc1cc(CNc2ccc3c(c2)OCCO3)cc(Br)c1OCC(N)=O` was tested. Which Potency did it give?
Its Potency is inconclusive: 25.1 µM [inhibitor, single point].

Which Potency does the source give for `C/C(=N/NC(=O)CN(c1ccccc1)S(=O)(=O)c1ccccc1)c1ccccc1O` here?
Its Potency is “inactive”.

For `CCOc1cc(C2C(C#N)=C(N)SC(N)=C2C#N)ccc1OCCN1CCOCC1`, which Potency is on record?
The Potency was “inactive”.

With `COc1ccc(-c2cnc3c(NC=O)cc(-c4ccc(F)cc4)cn23)cc1OC` as the molecule, how does the Potency read?
The Potency was inconclusive: 35.5 µM [inhibitor, partial curve, poor fit].

For `CCOC(=O)N1CCN(Cc2nc3cc(NC(=O)c4cccs4)ccc3n2CC)CC1`, which Potency is on record?
The Potency was inconclusive: 17.8 µM [inhibitor, single point].

How did the Potency turn out when `c1ccc(CNc2ncnc3c2cnn3-c2ccccc2)cc1` was run?
The Potency was inconclusive: 2.51 µM [inhibitor, full curve, poor fit].

How did the Potency turn out when `CCN(C[C@H]1N[C@@](C)(C(=O)OC)[C@H]2C(=O)N(Cc3ccccc3)C(=O)[C@@H]12)C(=O)Nc1ccc(Cl)cc1` was run?
The Potency was inconclusive: 0.562 µM [inhibitor, full curve, poor fit].

With `O=[N+]([O-])c1ccccc1CSc1ccccn1` as the molecule, how does the Potency read?
The Potency was “inactive”.

With `Cc1cccc(OCc2nnc(N)s2)c1C` as the molecule, how does the Potency read?
The Potency was “inactive”.

For `CCC(C)Oc1ccccc1C1CC(=O)NC2=C1C(=O)CCC2` (centres undefined), which Potency is on record?
The Potency was inconclusive: 7.08 µM [inhibitor, partial curve].

How did the Potency turn out when `O=C(Cn1cc2c(n1)CCCCC2)NCc1ccccc1` was run?
Its Potency is “inactive”.

Which Potency does the source give for `O=C(N/N=C/c1ccc(Cl)cc1Cl)c1n[nH]c2c1CCCC2` here?
The Potency was inconclusive: 1.78 µM [inhibitor, full curve, poor fit].

For `COc1ccc(C(C)(O)c2nc(-c3cccc(C#N)c3)cs2)cc1` (centres undefined), which Potency is on record?
The Potency was inconclusive: 12.6 µM [inhibitor, single point].

How did the Potency turn out when `Cc1cccc(N2CCN(C(=O)c3ccncc3)CC2)c1C` was run?
Its Potency is inconclusive: 10 µM [inhibitor, partial curve, poor fit].

`COc1ccc(-c2cnc3c(NC(C)=O)cc(-c4cc(F)ccc4OC)cn23)cc1OC` was tested. Which Potency did it give?
The Potency was inconclusive: 2.82 µM [inhibitor, full curve].

With `CCOc1ccc2nc(Nc3nc4ccc(NC(C)=O)cc4s3)sc2c1` as the molecule, how does the Potency read?
The Potency was inconclusive: 31.6 µM [inhibitor, single point].

For `COc1cc(C2CC(=O)Nc3cc(C)c(C)cc32)cc(OC)c1OC` (centres undefined), which Potency is on record?
Its Potency is inconclusive: 8.91 µM [inhibitor, partial curve, poor fit].

For `CC(=O)Nc1cc(-c2ccc(N(C)C)cc2)cn2c(-c3ccc(F)cc3)cnc12`, which Potency is on record?
The Potency was inconclusive: 17.8 µM [inhibitor, single point].

Which Potency does the source give for `CCOc1ccc(C(=O)NC(C(=O)NCc2ccccn2)C(C)C)cc1` (centres undefined) here?
Its Potency is inconclusive: 4.47 µM [inhibitor, single point].

With `COc1ccc(Cl)cc1NC(=O)CSC1=Nc2ccccc2C2=NC(CC(=O)NC3CCCCC3)C(=O)N12` (centres undefined) as the molecule, how does the Potency read?
The Potency was “inactive”.

Which Potency does the source give for `CC/C(=N/NS(=O)(=O)c1ccc(Cl)cc1)c1ccc(O)cc1` here?
The Potency was “inactive”.

With `O=c1cc(C(F)(F)F)nc(-n2[nH]c3c(c2=O)CCCC3)[nH]1` as the molecule, how does the Potency read?
The Potency was inconclusive: 3.98 µM [inhibitor, single point].

`COc1ccc(N2C(S)=C(C#N)C(=O)NC2c2ccc(OC)c(OC)c2)cc1` (centres undefined) was tested. Which Potency did it give?
The Potency was “inactive”.

`CCOCC(=O)Nc1nnc(SCCOC)s1` was tested. Which Potency did it give?
The Potency was “inactive”.

`CCN1CCN(CCOc2ccc(Cl)cc2)CC1` was tested. Which Potency did it give?
The Potency was “inactive”.

How did the Potency turn out when `Cc1ccc(/C=C2/Sc3ccc(C(=O)NCc4ccccn4)cc3NC2=O)cc1` was run?
The Potency was “inactive”.

`COc1ccc(C)cc1S(=O)(=O)n1cnc2ccccc21` was tested. Which Potency did it give?
Its Potency is inconclusive: 6.31 µM [inhibitor, full curve].

How did the Potency turn out when `CC1CCCCN1CCCNC(=O)c1[nH]c2ccccc2c1Sc1ccc(Cl)cc1` (centres undefined) was run?
The Potency was inconclusive: 35.5 µM [inhibitor, single point].

Which Potency does the source give for `Cc1c(P(=O)(c2ccccc2)c2ccccc2)c2ccccc2n1C` here?
Its Potency is “inactive”.

`COc1ccc(-c2csc(Nc3ccc(S(N)(=O)=O)cc3)n2)cc1` was tested. Which Potency did it give?
Its Potency is inconclusive: 15.8 µM [inhibitor, single point].

For `CCOC(=O)C1CCN(c2c(Nc3cc(C)cc(C)c3)c(=O)c2=O)CC1`, which Potency is on record?
The Potency was inconclusive: 25.1 µM [inhibitor, single point].

How did the Potency turn out when `CC(=O)NNC(=S)NC(=O)C(c1ccccc1)c1ccccc1` was run?
Its Potency is “inactive”.

With `Cc1noc(C)c1COc1ccc(C(=O)NNC(=O)c2ccccc2)cc1` as the molecule, how does the Potency read?
The Potency was inconclusive: 7.08 µM [inhibitor, partial curve, poor fit].

Which Potency does the source give for `O=C(NCCc1cccs1)C1CC(c2c(Cl)cccc2Cl)=NO1` (centres undefined) here?
Its Potency is “inactive”.

For `CN1CCN(CC(O)(c2ccc(Cl)cc2)c2ccc(Cl)cc2)CC1`, which Potency is on record?
Its Potency is “inactive”.

For `C/C(=N\NC(=O)CCc1c[nH]c2ccccc12)c1ccc([N+](=O)[O-])cc1`, which Potency is on record?
The Potency was inconclusive: 5.62 µM [inhibitor, single point].

For `COC(=O)c1cccc(Nc2c(-c3ccc(OC)cc3)nc3nc[nH]n23)c1`, which Potency is on record?
The Potency was inconclusive: 25.1 µM [inhibitor, single point].

For `Cc1c(N2C(=O)/C(=C3\C(=O)N(CC(=O)O)c4ccccc43)SC2=S)c(=O)n(-c2ccccc2)n1C`, which Potency is on record?
Its Potency is inconclusive: 35.5 µM [inhibitor, single point].

With `Cc1ccc(S(=O)(=O)Nc2cccc(C(=O)NCc3cccnc3)c2)cc1F` as the molecule, how does the Potency read?
The Potency was inconclusive: 2.51 µM [inhibitor, full curve, poor fit].

With `O=S1(=O)C=C(Sc2nc3ccccc3s2)c2ccccc21` as the molecule, how does the Potency read?
Its Potency is inconclusive: 11.2 µM [inhibitor, partial curve, poor fit].

With `CC1=NOC(=O)/C1=C\c1ccc(-c2ccc(Br)cc2)o1` as the molecule, how does the Potency read?
The Potency was inconclusive: 20 µM [inhibitor, partial curve, poor fit].

`CC(=O)Nc1ccc(S(=O)(=O)N2CCN(C(=O)Cc3ccccc3)CC2)cc1` was tested. Which Potency did it give?
The Potency was “inactive”.

For `Cc1c(Cl)ccc2c1NC(=O)[C@]21[C@@H]2C(=O)N(Cc3ccccc3)C(=O)[C@@H]2[C@@H]2CCCN21`, which Potency is on record?
Its Potency is inconclusive: 35.5 µM [inhibitor, single point].

With `COc1ccc(NC(=O)C2(C)Cc3c(-c4cccc(C(N)=O)c4)ccnc3O2)cn1` (centres undefined) as the molecule, how does the Potency read?
The Potency was inconclusive: 3.16 µM [inhibitor, full curve].

Which Potency does the source give for `Cc1noc(/C=C/c2ccc(-c3ccccc3Cl)o2)c1[N+](=O)[O-]` here?
Its Potency is inconclusive: 1.26 µM [inhibitor, partial curve, poor fit].

With `COc1cc(/C=C2\SC(=S)N(Nc3ccccc3)C2=O)ccc1O` as the molecule, how does the Potency read?
The Potency was inconclusive: 20 µM [inhibitor, single point].

With `COCCn1c(SCC(=O)Nc2cccc(OC)c2)nc2c(oc3ccccc32)c1=O` as the molecule, how does the Potency read?
The Potency was inconclusive: 25.1 µM [inhibitor, single point].

For `CCN(CCO)C1CC(=O)N(c2ccccc2C)C1=O` (centres undefined), which Potency is on record?
The Potency was “inactive”.

With `CN1C(=S)N(c2cccnc2)C(=O)/C1=C\c1ccc(N(C)C)cc1` as the molecule, how does the Potency read?
Its Potency is inconclusive: 11.2 µM [inhibitor, partial curve, poor fit].

For `O=C1S/C(=C\c2ccc(Cl)cc2)C(=O)N1CCn1cnnn1`, which Potency is on record?
The Potency was “inactive”.

Which Potency does the source give for `COc1ccc(N2CCN(Cc3nc4c(c(=O)[nH]c(=O)n4C)n3Cc3ccccc3F)CC2)cc1` here?
The Potency was “inactive”.

`CCn1c2ccccc2c2cc(NC(=O)COC(=O)c3cccc(S(=O)(=O)NC)c3)ccc21` was tested. Which Potency did it give?
The Potency was inconclusive: 35.5 µM [inhibitor, single point].

Which Potency does the source give for `COc1ccccc1N1CCN(C(=O)c2ccc3ncsc3c2)CC1` here?
Its Potency is inconclusive: 7.08 µM [inhibitor, full curve].

`CCCN1C(=O)S/C(=C\c2ccc(N3CCOCC3)o2)C1=O` was tested. Which Potency did it give?
The Potency was inconclusive: 2.82 µM [inhibitor, full curve, poor fit].

With `O=C(O)c1sccc1Oc1ccc(NS(=O)(=O)c2cccc(F)c2)cc1` as the molecule, how does the Potency read?
Its Potency is “inactive”.

`COc1cc(/C=C2/CCc3ccccc3C2=O)cc(OC)c1OC` was tested. Which Potency did it give?
Its Potency is inconclusive: 25.1 µM [inhibitor, single point].

For `O=C1C(Cl)=C(Nc2ccc(O)cc2)C(=O)c2ccccc21`, which Potency is on record?
The Potency was “inactive”.

For `CCOc1ccccc1N1CCN(C(=O)c2cc3ccccc3cc2OC)CC1`, which Potency is on record?
The Potency was inconclusive: 1.78 µM [inhibitor, full curve, poor fit].

For `CCOC(=O)c1sc2nc(C)cc(C)c2c1N`, which Potency is on record?
The Potency was “inactive”.
